The RNAGym collection of RNA variant scans (doi:10.7554/elife.90254)
The source gives no read counts; variants with many changes may rest on few reads.

B1: OR4K15 (parent)
chain: GUUAACGGUCAUAGGCCAUGGAAACUAGGAGCACCAUUUCGCUGCCAGUGAAGAAAUGAACAAAGAAAAUCUGGGCCAGGCAGGCAUCAAAAGAAAUAGUCUUGCGCUCAACCAGAAAGUCUGUAAUCAUUUUAAGGGUA

Variants of: B1
Test: self-cleavage, relative activity (ratio to wild type); higher = more cleavage; in vitro, sequencing; the parent is a self-cleaving ribozyme

Variant | self-cleavage
G41A U124G U131C | 1.3
U39C A51G C76A A117G | 0.12
U43A A60G A118G A126G | 0.54
U39C A95G A114G | 1.35
C42A U57A A90G U133C | 1.05
U39C A67U U72A A82G A117G | 0.19
U38G A51U A125G A129G | 0.55
U39A A89U A92G U127C A134G | 0.68
U43A A47G U100A U120A | 0.93
U39C A91G A92G | 0.54
C42U A60U U124C | 1.32
U39C A59G U108C U120G | 0.01
U39C A56G A69G | 1.15
G41A A66C A90G U103C | 0.46
U43A A66G A111G | 0.03
U39C A56G A68G | 0.95
U43A A66G A95G | 2.57
U38C A68G A98U A116G | 1.85
U38C A60G U72C | 0.08
U43A A82G U97C | 0.33
U38C U103C U124A | 0.37
U43A A56G U57G A82G | 0.44
U39C A56G A62G A63G | 1.49
U38C A68G A86G A117G A118G | 2.32

Variant | self-cleavage
U39A A52G A90G | 0.87
U38C A63G A116G U124C U139C | 0.4
U38C C107U A140G | 0.03
U39C A63G A94G | 0.89
U39A A56G U102C U132C | 2.35
U43A A51U A94G A118G A129G | 0.38
U43A A55G A59U A111G | 0.02
U38C A60G A66G | 1.48
U38C A86U U87C A98G U122A | 0.08
U38C U70C A89G A92G A126G U131C | 0.11
U39C A64U U97C U100C U131C | 1.4
U38C U72C A90G A94G U102C U124A | 0.15
C40U A47G U70C U108C U124A U132G | 0
U38C A118G U127C | 0.51
U39C A78G A82G | 0.37
U38C U43A A55G A78G A94U | 0.27
U39C G83A A86U A98G | 1.33
U38C A94G U127C | 0.64
U38C A66G A92G | 1.73
U38C U57C A60U A68G A90G U124C | 0.71
U38C A89G A92G | 1.91
U39C A59G G106A | 0
G41A A51G A78U | 0.17
U38C A68G A90G A116G | 0.56

Variant | self-cleavage
C40G A52U A82G U87C A129U | 0.19
U43A A64C A110G | 0.16
U38C A94G G136U | 1.56
U43A A52G A62G | 2.1
U43A A55G U120A U132A | 0.71
U39A A89U U108C | 0.03
U39C A54G U108C | 0.03
U38C A67G A82G C107U U108C A140U | 0.05
G41A A60G A91U U127A | 1.99
U43A A56G A94U U120A U130C | 1.38
U39C A47U A51G A94C | 0.45
U38C A62G U87C A118G | 1
U38C U43C A91G | 0.97
U39C A60G U122C | 0.31
U39G A67G A118G | 0.52
U39C A67G A78U | 0.46
U43A A67U A89G U103A U124A | 0.22
U39C A89G A92G | 1.83
U39C A54G A68G U97C | 0.35
U39C A69G U120C A129G | 0.87
U43A A54G A117U | 1.13
U39C A66U U103C A116G | 0.45
U43A A66G A67G A116G U120C U127C U133C | 0.82
U38C C77G C85U | 0.27

Variant | self-cleavage
U38C U122G U131C | 2.25
U39A A64G U130C | 0.36
U39C A52G U122C | 1.74
G41A A114C U133A | 0.01
U38C A78U A126G | 0.54
U39C A92G U131C | 1.27
U39C U43C G75A A94G A96G | 0.06
U39C A60G A67G | 1.67
U38C A60G U70C | 0.94
U38C U102C C105U U122C | 0.46
C40A A126G A129G | 0.95
C42A A67G U139A | 1.72
G41A A52G A117U | 1.22
C42U A64G G99U U108C U120C U132C | 0.03
C40A A52G U72C U87C | 0.38
U39A C61U C121U | 2.31
U38C U49G A67G U102C U124C | 1.37
U39A A54G U57C U70C | 0.17
U39C A59G A92G A111G | 0.01
C40A G44A U49C A67U | 1.69
U39C A54G A95G | 2.53
U38C A89U A111G A140G | 0.01
U39C U57G U103C | 0.2
U39C U87C A92G A95G A96G | 2.35

Variant | self-cleavage
U38C G41A A64G U122C | 1.48
U43A A64G A111U | 0.37
U39C A51G A90U A111G | 0.04
U38C U100A U139C | 0.79
U39A A54G A90G | 1.27
U38C A125G U127C A135U | 0.2
U38C G83A A90G | 1.46
G41U G44A U102C | 2.14
U43A A68G G79A A114U | 0.05
U39C A56G A117U U131A U132C | 1.31
U39C A91G U102C U124A | 1.21
C42A U57C A59G U100A U139A | 0.36
U39G U72G A82G C112U | 0.02
U38C U39C A51U A52G A68G | 1.7
U39C A51G A59G A68G | 0.84
U38C A78U U87C U103C A114G | 0.06
C40U A67G A92U U127C | 1.24
U38C U57C A62G | 1.24
U38C A63G U100C A126G U127C A140U | 1.7
U38C A86U U108G A126G | 0.01
U39A A60G A64G A68G A117G | 1.61
U39C U43C A52U A96G | 1.35
U38C U49C A60G A64G U72A | 0.43
U39C A52G A68G U97C A110G A126U | 0.07

Variant | self-cleavage
U43A A51U A52U A82G A92G | 0.17
C42U A51G A60G A114U A135U | 0.02
U39C U108C A118C | 0.01
U39C G41A U87C A94U | 1.62
U38C U87A A91G U100C U102C A110G | 0.08
G41A A51G A69G A110G A114G A116U | 0.03
U39C A68G A94G U130C | 1.61
U39C A82G A116G | 0.16
U38C U43C U122C | 1.29
U39C G50A A66G U102C G106A U108A C109A A117G | 0.01
U38C A94G A96G | 0.84
U39C A63C A92G U127A U139C | 1.78
U43A A78U A90G | 0.3
U39C A52U A67G U72G A110C | 0.1
U39A U122C U131C | 0.33
U38C C40U U49G A54G C113U | 0.06
U38C A69G U131C | 1.2
C40U A52G U122C U133C | 2.48
G41A A60G A62G | 0.63
U38C U100A U132C | 0.58
G41A U87A A94G U103C U139C | 1.09
U38C A78U A82G | 0.14
U38C G93A A117G C128U U133C | 2.32
U39A A68U A140G | 1.94

Variant | self-cleavage
C40U A60G A78G A91G A92G | 0.19
G41A A86G U122G A134C G136A | 2.62
U39A A59G U102C U103C U122C | 0.22
U38C G58A U132C | 1.44
U43A A82G A92G A116G | 0.26
U39C G41U G83A A90G | 1.52
U39C A95G A129G | 1.85
U39C A51G U124C U127C | 0.73
U39C A67G A82G | 0.45
U39C A68G A95G | 2.04
U39C U43A A54C U100C G123A U130C | 1.94
U38C A69G U124C | 0.44
C40U A47U A60U | 1.49
U38C A64G U108C | 0.03
C40A A59U A118G | 0.4
U39C A47G A56G A78U U120A | 0.32
U38C A90G A94U | 1.49
C40U A64G A68G A116G | 0.9
U39C A56G A86G A96G | 0.97
U38G U49C U108A U122A | 0.01
U39A A54U U108C | 0
G41A A56G A78G A91U | 0.3
U43A A66U A111U | 0.21
